Laboratory results: the supplement of paper PMC3334620
Whole data set: some 33,000 sequences, median “E-score (-0.5 to 0.5)” near -0.017, cut for the highest 2% near 0.3. This is one part of the list.

These sequences were tested against T1, Sut1 (UniProt P53032) (assay: PBM E-score (8-mer binding enrichment) (E-score (-0.5 to 0.5)); higher = stronger / more preferred TF binding; most listed sequences are background and not binding sites). Conditions: protein concentration: 200 nM; construct: GST-full length.
T1 sequence: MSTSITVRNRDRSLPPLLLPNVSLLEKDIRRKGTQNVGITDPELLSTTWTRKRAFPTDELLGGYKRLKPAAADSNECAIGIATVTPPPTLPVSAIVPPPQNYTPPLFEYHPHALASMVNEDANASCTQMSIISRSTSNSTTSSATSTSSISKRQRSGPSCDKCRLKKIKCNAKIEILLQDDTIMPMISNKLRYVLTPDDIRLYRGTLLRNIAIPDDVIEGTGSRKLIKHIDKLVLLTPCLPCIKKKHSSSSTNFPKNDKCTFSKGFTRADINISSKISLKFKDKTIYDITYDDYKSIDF
Procedure, shortened: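 PURExpress in vitro transcription/translation supplied GST-tagged yeast transcription factors, either full-length or DNA-binding domain. Applied at about 100-200 nM to universal all-10-mer Agilent arrays double-stranded by primer extension, the bound protein was detected with fluorescent anti-GST. E-scores, modified Wilcoxon-Mann-Whitney statistics, were given by the Universal PBM Analysis Suite to ungapped eight-base words pooled with their reverse complements after masliner normalisation.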

| Sequence | PBM E-score |
| --- | --- |
| CCGCGCGA | 0.0782 |
| ATCAACTC | -0.0768 |
| CTCGAGAC | -0.00181 |
| AGTACGAT | 0.00058 |
| CGGGGCGA | 0.00428 |
| AACCCAAG | 0.0241 |
| CAGTAGGC | -0.056 |
| AAGCGGCA | -0.105 |
| GAAGCAAA | 0.0636 |
| AAGTTGCA | -0.0738 |
| CTTCCGAC | 0.173 |
| GGGGCCCC | 0.0144 |
| GTTTCGTA | 0.0481 |
| ACGCCAGT | -0.148 |
| ACCAACTC | -0.00536 |
| CCAGAAAC | -0.0561 |
| AGTCTAAA | 0.121 |
| CTTATACC | 0.0712 |
| GTACGTTA | 0.0266 |
| ACCTCCGT | 0.165 |
| CACTTAAC | 0.156 |
| CACGGCAC | 0.00649 |
| GGGTCTTA | -0.168 |
| ACAATCAG | -0.0158 |
| CTTGTGGC | -0.164 |

| Sequence | PBM E-score |
| --- | --- |
| ATTATAAT | 0.378 |
| TAGATTAA | 0.292 |
| AGACTCTA | -0.0408 |
| CCTTCGAA | 0.0651 |
| CGAGCGTC | -0.241 |
| CCCGGCTC | -0.156 |
| ACACTAAT | 0.103 |
| CGGCTGTC | -0.14 |
| CCCCTGTA | -0.184 |
| AACAATCC | 0.183 |
| CAATCAAA | 0.0492 |
| CCTTGTAA | 0.165 |
| ATTATTGC | 0.214 |
| CCGCCCGC | -0.158 |
| GATCAGAC | -0.211 |
| AAGCCTCG | -0.0281 |
| ACACCATG | -0.203 |
| CCAAACAA | 0.122 |
| AGTTGTGA | 0.087 |
| AATACGGC | -0.0196 |
| ACGAATAC | 0.141 |
| GGAAACAA | 0.0824 |
| ATTCCTTC | 0.0876 |
| GAGATATA | 0.162 |
| GCAGGAGC | -0.334 |

| Sequence | PBM E-score |
| --- | --- |
| CACGTCGC | -0.173 |
| ATCCACAA | -0.0307 |
| ACGGCAGT | -0.0735 |
| CACACTCG | -0.121 |
| CAGCTGAC | 0.0633 |
| CTATCGGC | -0.13 |
| CGTTGTGC | -0.185 |
| AAGGCGAC | -0.202 |
| AGCGCTCG | -0.0764 |
| ACTCTGGG | -0.114 |
| TCTGACCA | 0.053 |
| CCTCGCAC | -0.132 |
| ACAACGAT | 0.113 |
| CCCTCGGA | 0.272 |
| CAGGCCGA | -0.0634 |
| CGACCCAG | -0.133 |
| CTTCTCAC | 0.0892 |
| AGCCGGCG | -0.0364 |
| GTAGAGCA | -0.146 |
| TCCGTAAA | 0.297 |
| ACACGACA | 0.161 |
| CGTAGCAC | 0.0497 |
| AAACGCTC | -0.0412 |
| AAATCGAC | -0.0717 |
| TCGATGCA | -0.235 |

| Sequence | PBM E-score |
| --- | --- |
| AATTGGGT | 0.232 |
| GAGAGATC | -0.189 |
| CTGACGTC | -0.112 |
| ATCGCCCA | -0.242 |
| TGATACCA | -0.0561 |
| AGACAAGC | -0.0684 |
| CTTCGGAC | 0.405 |
| ACAACCAC | 0.169 |
| CCACCGGA | 0.362 |
| GCGGCGAC | -0.0515 |
| ATCATTGC | -0.0909 |
| ATGGATTA | -0.139 |
| ACATGGCT | -0.139 |
| AGTTGGTG | 0.00404 |
| CCTCATAA | -0.0996 |
| AATCGTCC | -0.0212 |
| CCTGTCCA | -0.264 |
| CCAGTGAG | -0.0296 |
| ACAAGGCT | -0.269 |
| CTAACATC | -0.0167 |
| TACTCCGA | 0.491 |
| TACGTCGA | 0.0132 |
| CCACCGCG | 0.159 |
| CTGGGATC | -0.198 |
| GCCCGGAA | 0.244 |

| Sequence | PBM E-score |
| --- | --- |
| CAGAATAG | -0.0939 |
| ACGTCCTG | -0.351 |
| AAACGGAC | 0.147 |
| GAGCCTGC | -0.113 |
| CTTAAGAA | 0.22 |
| CCAGCCTC | -0.345 |
| GCGTTGGA | -0.154 |
| ATGAGCCC | -0.287 |
| CTCATTCA | 0.0887 |
| CATTATAC | 0.151 |
| AAGGCGCC | -0.219 |
| CCAAGTCC | 0.276 |
| TCATGTCA | -0.0459 |
| TAAAGCCA | 0.0423 |
| GAGGCATC | -0.202 |
| AGACAGGA | 0.156 |
| CCGGGGGA | 0.0236 |
| ATGCAATG | -0.0495 |
| ATCGCTGC | -0.111 |
| AGTTTCGG | 0.249 |
| GAAACGCC | 0.0491 |
| TGCAGCAA | -0.0544 |
| AAGGGGCA | -0.185 |
| ACCCTACT | -0.263 |
| GGGGTTTA | 0.102 |

| Sequence | PBM E-score |
| --- | --- |
| CAGTTGCC | -0.0458 |
| GCACAACC | -0.0984 |
| CTGATCTC | 0.082 |
| CAAATCTC | 0.124 |
| AAATGGGT | 0.219 |
| ATTATGGA | 0.214 |
| CAAGCTGA | 0.0467 |
| GATGTTGA | 0.0736 |
| CCCTGTGC | -0.306 |
| CTTCCTTA | 0.0738 |
| ACACTCCG | 0.438 |
| CAGAGTGA | -0.135 |
| AGGATGGC | -0.132 |
| CTCATTGA | -0.189 |
| AAGACCAC | -0.181 |
| AACTCGAT | 0.192 |
| ATAAGATA | 0.24 |
| CAGTGTGC | -0.217 |
| AGCAGCTG | -0.0107 |
| CGAGAGTA | 0.0941 |
| AGTATAAG | 0.157 |
| CGACAGTC | -0.209 |
| GTAGGCGA | -0.0513 |
| AAACCGTT | 0.0182 |
| GTAGCCAA | -0.0559 |

| Sequence | PBM E-score |
| --- | --- |
| CGCTGGCC | -0.311 |
| CCAGAGAG | -0.22 |
| AATCACCG | -0.0218 |
| TGCCGAAA | 0.175 |
| CCGCTATA | -0.0131 |
| AATAGGAA | 0.178 |
| AGGCTATC | 0.0163 |
| GTACTCAA | 0.0674 |
| ACGTGGGA | -0.224 |
| AATTCGAT | 0.222 |
| AGAGGTTA | -0.104 |
| CCAGACGG | -0.108 |
| ACAACTCA | 0.13 |
| CGATGCCC | -0.206 |
| CGGTGCGA | -0.12 |
| AATTGGAA | 0.192 |
| ATTGGAGA | 0.0149 |
| AACAGGGT | -0.146 |
| CCCCTGCC | -0.305 |
| AACTACTG | 0.0566 |
| CACGAGTA | 0.009 |
| GGGGACAA | -0.0934 |
